Data from PubChem BioAssay AID463173 (ICCB-Longwood Screening Facility, Harvard Medical School, 2010).
Screen size: about 52,000 compounds; about 1,700 (3.3%) were called active. No stated cut-off is given here; in the data, active means survival mostly below about 52% (no sharp cut-off); inactive means mostly above about 56%. The list shows a part of the results.

System: Wild type
Assay: growth inhibition of S. aureus wild type versus tarO mutant, primary screen, teichoic acid synthesis inhibitors, RN4220, OD600 (AID 463173)
Settings: S. aureus RN4220 wild type/DeltatarO growth, OD600, 18 h, active compounds read low, screened at 18.75 µg/mL (by protocol)

SMILES	survival
Cc1cc(C)cc(NC(=O)C2(c3cccs3)CCOCC2)c1	inactive: 72%
COc1ccccc1CNC(=O)Cn1nc(C)c2nn(-c3ccc(Cl)cc3)c(C)c2c1=O	inactive: 45%
CC(C)c1ccc(Nc2ncnc3c2c(-c2ccccc2)cn3-c2ccccc2)cc1	inactive: 68%
Clc1cccc(-n2ncc3c(N4CCN(Cc5ccccc5)CC4)ncnc32)c1	inactive: 19%
CCCOc1cccc(C(=O)NCc2cccnc2)c1	inactive: 120%
CC(C)COc1ccccc1C1CC(=O)Nc2cc3c(cc21)OCO3 (stereo not given)	inactive: 104%
N#CC1=C(N)OC2=C(C(=O)CCC2)C12CCCC2	inactive: 105%
COc1cccc(CNC(=O)Cn2ccc3cc(S(=O)(=O)N4CCC(C)CC4)ccc32)c1	inactive: 75%
Cc1ccc(-c2nc3cccnc3s2)cc1NC(=O)Cc1ccccc1	inactive: 101%
COc1ccc(NC(=O)Cn2ccn(-c3ccccc3)c(=O)c2=O)cc1	inactive: 83%
O=C(O)c1n[nH]c2c1CCCCC2	inactive: 109%
O=S(=O)(c1ccccc1)N1CCc2ccccc21	inactive: 121%
O=C(Nc1ccc(Cl)cc1-c1nc2ccccc2s1)c1ccco1	inactive: 98%
Cc1ccc(-n2nc(C)c3c(C(=O)Nc4ccc(Br)c(C)c4)cc(C)nc32)cc1	inactive: 78%
O=C(CCn1[nH]c(=O)c2ccccc2c1=O)NCCO	inactive: 95%
COCCNC(=O)CSc1nc(-c2ccc(C)cc2)nc2c1c(=O)n(C)c(=O)n2C	inactive: 77%
COC(=O)C1=C(C)NC(=O)C1(NC(=O)c1ccccc1C)C(F)(F)F (stereo not given)	inactive: 89%
COc1cccc(-c2nc(SCC(=O)N3CCc4ccccc43)c3c(=O)n(C)c(=O)n(C)c3n2)c1	inactive: 135%
CCOCCCn1c(=N)c(C(=O)NCC2CCCO2)cc2c(=O)n3cc(C)ccc3nc21 (stereo not given)	inactive: 90%
COc1ccc(CCC(=O)NCc2ccc3c(c2)CCN3C(=O)c2ccc(C)cc2)cc1	inactive: 70%
CCOc1ccccc1CNC(=O)CN1C(=O)CCc2cc(S(=O)(=O)N3CCCCC3)ccc21	inactive: 113%
Cc1cccc(OCC(=O)Nc2ccc3nc(Nc4cccc(Cl)c4)cc(C)c3c2)c1	inactive: 82%
CCOC(=O)c1c(-c2ccccc2)oc2ccc(NS(=O)(=O)c3ccc(C(C)C)cc3)cc12	inactive: 82%

SMILES	survival
COc1ccccc1NC(=O)c1c(NC(=O)c2ccccc2Cl)sc2c1CCC2	inactive: 85%
O=C(NC1CCCCC1)c1cccnc1Nc1ccccc1F	inactive: 113%
Cn1c(=O)c(=O)n(C)c2cc(NC(=O)c3ccccc3Br)ccc21	inactive: 93%
CC(=O)N1CCc2c(sc3c2c(=O)n(Cc2ccccc2)c(=O)n3CC(=O)Nc2ccc(C)c(F)c2)C1	inactive: 87%
CCOc1ccc(CNC(=O)CCCn2c(=O)c3cccn3c3ccc(F)cc32)cc1	inactive: 65%
CCc1ccc(NC(=O)CCn2cnc3ccccc3c2=O)cc1	inactive: 72%
Cc1cc(C)n(CCOc2nonc2N)n1	inactive: 113%
CCc1ccc(S(=O)(=O)c2nnn(-c3cccc(C)c3)c2N)cc1	inactive: 69%
COc1ccc(CN2C(=O)C(NC(=O)c3ccccc3OC)(C(F)(F)F)N=C2c2ccccc2)cc1 (stereo not given)	inactive: 83%
O=C(/C=C\Nc1ccccn1)c1ccc2c(c1)OCO2	inactive: 109%
CC(C)c1ccc(OCc2cc(=O)n3c(-c4ccccc4)csc3n2)cc1	inactive: 127%
Cc1ccc(S(=O)(=O)c2nnn3c2nc(NCc2ccccc2Cl)c2sccc23)cc1	inactive: 92%
CCOC(=O)c1ccc(NC(=O)c2nn(C)c3c2COc2ccccc2-3)cc1	inactive: 113%
COc1cc(-c2cc(OC)c3c(C)oc(C)c3c(=O)c2)ccc1OC(=O)c1cccc(Cl)c1	inactive: 118%
COc1ccc(NC(=O)CCCN2C(=O)COc3ccc(C)cc32)cc1OC	inactive: 114%
c1ccc(N2CCN(N=C3c4ccccc4-c4ccccc43)CC2)nc1	inactive: 37%
CC(C)(C)OC(=O)N1CCC(c2c(C(=O)N3CCN(C(=O)c4ccco4)CC3)cnn2-c2ccccc2Cl)CC1	inactive: 93%
COCCCNC(=O)c1ccc2c(c1)NC(=O)C(C(C)C)N2 (stereo not given)	inactive: 73%
O=C(Cn1c(=O)n(-c2ccc(Cl)cc2)c(=O)c2c3c(sc21)CCC3)c1ccccc1	inactive: 72%
CCOC(=O)c1c(NC(=O)CSc2cn(CCNC(=O)c3ccccc3F)c3ccccc23)sc2c1CCCC2	inactive: 95%
Cc1ccc(NC(=O)C(C#N)Cc2ccncc2)cc1C (stereo not given)	inactive: 104%
CC(C)(C)NC(=O)c1oc2ccccc2c1NC(=O)c1ccc(F)cc1	inactive: 73%
CCc1ccc(S(=O)(=O)c2nnn3c2nc(NCCNC(C)=O)c2cc(Cl)ccc23)cc1	inactive: 88%

SMILES	survival
COC(=O)CSc1n[nH]c(CNc2cccc(C)c2)n1	inactive: 108%
Cc1ccccc1C(=O)c1cccn1CC(=O)NCc1cccc(Cl)c1	inactive: 102%
CCC(=O)Nc1ccc(C(=O)Nc2c[nH]c(=O)[nH]c2=O)cc1	inactive: 107%
COCCN(CCOC)c1ncnc2c1c(-c1ccccc1)cn2-c1ccc(C)c(Cl)c1	inactive: 73%
Cc1ccc(Cn2cc(CCC(=O)NCc3ccc(OC(C)C)cc3)c3ccccc32)cc1	inactive: 83%
CCCCNC(=O)C(CC)Sc1nc2ccccc2c(=O)n1CCc1ccc(OC)c(OC)c1 (stereo not given)	inactive: 127%
CCc1nn(CCCC(=O)NC(C)c2ccccc2)c(=O)c2cc3occc3n12 (stereo not given)	inactive: 81%
Cn1c(SCc2ccccc2F)nc2c([nH]c3ccccc32)c1=O	inactive: 99%
Cc1cc2ccccc2n2c(SCC(=O)O)nnc12	inactive: 106%
CCc1ccc(NC(=O)Cn2c(-c3cncs3)nc3ccccc32)cc1	inactive: 70%
CC(C)C(Nc1n[nH]c(=O)[nH]c1=O)C(=O)O (stereo not given)	inactive: 110%
Cc1ccc(NC(=O)Cn2c(=O)n(Cc3ccc4c(c3)OCO4)c(=O)c3ccc(C(=O)NC4CCCCC4)cc32)c(C)c1	inactive: 82%
CCOc1ccc2nc(NCCNC(=O)COc3ccccc3)c(C#N)cc2c1	inactive: 116%
COc1ccccc1C(=O)Nc1ccc(OCc2cc(=O)n3cc(C)sc3n2)cc1	inactive: 120%
COc1ccc(C)cc1NC(=O)c1ccc2c(c1)nnn2C1CCCC1	inactive: 76%
CCn1c2ccccc2c2cc(CN3CCN(Cc4ccccc4C)CC3)ccc21	active: -1%
O=C(c1ccc2c(c1)N(Cc1cccc(Cl)c1)C(=O)c1ccccc1S2)N1CCOCC1	inactive: 99%
Cc1ccc2[nH]c(=O)c3cc(C(=O)NCCc4ccc(Cl)cc4)sc3c2c1	inactive: 86%
O=C1c2oc3ccccc3c(=O)c2C(c2cccc(Cl)c2)N1c1ccccn1 (stereo not given)	inactive: 70%
c1ccc(OCCn2c(COc3ccccc3)nc3ccccc32)cc1	active: -15%
O=S(=O)(Nc1ccc(-c2ccc(N3CCCC3)nn2)cc1)c1cc(F)ccc1F	inactive: 80%
CC1=C(C(=O)Nc2ccc(C)cc2C)C(c2ccccc2F)n2nc(SCC(=O)c3ccc(C)cc3)nc2N1 (stereo not given)	inactive: 152%
CCOC(=O)/C(C#N)=C1\CC2CCC1(C)C2(C)C (stereo not given)	inactive: 117%

SMILES	survival
O=C(Cn1c(=O)c2cccn2c2cccnc21)NCc1ccccc1F	inactive: 81%
CN1CCN(C(CNC(=O)C(=O)Nc2cccc(Cl)c2)c2ccc3c(c2)OCO3)CC1 (stereo not given)	inactive: 75%
CCc1ccc(NC(=O)c2cnc3sc(N4CCCC4)nn3c2=O)cc1	inactive: 85%
Cc1cc2nc(-c3ccc(OCc4ccccc4)cc3)cc(C(F)(F)F)n2n1	inactive: 68%
COc1ccccc1NC(=O)C1CCC(CNS(=O)(=O)c2ccc3c(c2)CC(C)N3C(C)=O)CC1 (stereo not given)	inactive: 85%
Cc1cc(-n2c(C)nc3ccccc3c2=O)ccc1NC(=O)c1ccc([N+](=O)[O-])cc1	inactive: 82%
O=C(Nc1ccc(S(=O)(=O)N2CCCCCC2)cc1)c1cc(=O)c2ccccc2o1	inactive: 81%
CCOc1ccc(NS(=O)(=O)c2ccc3[nH]cc(C(=O)NCC4CCCO4)c(=O)c3c2)cc1 (stereo not given)	inactive: 88%
COC(=O)CN1C(=O)CSc2ccc(S(=O)(=O)Nc3cccc(Cl)c3C)cc21	inactive: 90%
Nc1c(-c2nc(-c3ccc(F)cc3)cs2)c2ccccn2c1C(=O)c1ccc2c(c1)OCO2	inactive: 105%
CCOc1ccc(N2CC(C(=O)NCc3nnnn3-c3ccc(C)c(C)c3)CC2=O)cc1 (stereo not given)	inactive: 65%
CC(=O)c1ccc(N2CCN(C(=O)CCS(=O)(=O)c3ccc4c(c3)oc(=O)n4C)CC2)cc1	inactive: 89%
COc1ccc(NCc2cc3ccc(OC)cc3n(CC(=O)Nc3cc(Cl)ccc3C)c2=O)cc1	inactive: 77%
CC(=O)Nc1cccc(-c2nc3ccccc3o2)c1	inactive: 112%
Cc1cc(=O)n(CC(=O)N2CCN(c3ccc(F)cc3)CC2)c2c1c(C)nn2C	inactive: 95%
CC(Oc1ccccc1F)C(=O)Nc1ccc(-c2nc3ccccc3s2)cc1 (stereo not given)	inactive: 115%
CCSc1ncc(Cl)c(C(=O)Nc2sc3c(c2C(=O)NC)CCCC3)n1	inactive: 90%
CC1CCc2c(sc(NC(=O)c3cc4nc(-c5ccc(Cl)cc5)cc(C(F)(F)F)n4n3)c2C#N)C1 (stereo not given)	inactive: 69%
CCc1cccc(NC(=O)CN(C)S(=O)(=O)c2cccc3cccnc23)c1	inactive: 70%
CCC1CCCCN1C(=O)c1sc(-n2nc(C)c(Cc3ccccc3)c2C)nc1C (stereo not given)	inactive: 72%
COc1ccc(S(=O)(=O)c2cnc(SCC(=O)Nc3cc(F)ccc3C)[nH]c2=O)cc1Cl	inactive: 91%
